From paper PMC4336329 (PLoS ONE, 2015) come the findings set out here.

Molecules are shown by their SMILES. In all, about 310,000 compounds went through this assay and about 2,200 (0.71%) showed an effect of 50% or more. The effect is printed as a negative number. Some of the results follow.

The assay deals with human ether-à-go-go-related gene (hERG) potassium channel (human, UniProt Q12809). Description: primary screen, population patch clamp on CHO cells stably expressing hERG.
Chain of human ether-à-go-go-related gene (hERG) potassium channel (Q12809 whole entry, looked up): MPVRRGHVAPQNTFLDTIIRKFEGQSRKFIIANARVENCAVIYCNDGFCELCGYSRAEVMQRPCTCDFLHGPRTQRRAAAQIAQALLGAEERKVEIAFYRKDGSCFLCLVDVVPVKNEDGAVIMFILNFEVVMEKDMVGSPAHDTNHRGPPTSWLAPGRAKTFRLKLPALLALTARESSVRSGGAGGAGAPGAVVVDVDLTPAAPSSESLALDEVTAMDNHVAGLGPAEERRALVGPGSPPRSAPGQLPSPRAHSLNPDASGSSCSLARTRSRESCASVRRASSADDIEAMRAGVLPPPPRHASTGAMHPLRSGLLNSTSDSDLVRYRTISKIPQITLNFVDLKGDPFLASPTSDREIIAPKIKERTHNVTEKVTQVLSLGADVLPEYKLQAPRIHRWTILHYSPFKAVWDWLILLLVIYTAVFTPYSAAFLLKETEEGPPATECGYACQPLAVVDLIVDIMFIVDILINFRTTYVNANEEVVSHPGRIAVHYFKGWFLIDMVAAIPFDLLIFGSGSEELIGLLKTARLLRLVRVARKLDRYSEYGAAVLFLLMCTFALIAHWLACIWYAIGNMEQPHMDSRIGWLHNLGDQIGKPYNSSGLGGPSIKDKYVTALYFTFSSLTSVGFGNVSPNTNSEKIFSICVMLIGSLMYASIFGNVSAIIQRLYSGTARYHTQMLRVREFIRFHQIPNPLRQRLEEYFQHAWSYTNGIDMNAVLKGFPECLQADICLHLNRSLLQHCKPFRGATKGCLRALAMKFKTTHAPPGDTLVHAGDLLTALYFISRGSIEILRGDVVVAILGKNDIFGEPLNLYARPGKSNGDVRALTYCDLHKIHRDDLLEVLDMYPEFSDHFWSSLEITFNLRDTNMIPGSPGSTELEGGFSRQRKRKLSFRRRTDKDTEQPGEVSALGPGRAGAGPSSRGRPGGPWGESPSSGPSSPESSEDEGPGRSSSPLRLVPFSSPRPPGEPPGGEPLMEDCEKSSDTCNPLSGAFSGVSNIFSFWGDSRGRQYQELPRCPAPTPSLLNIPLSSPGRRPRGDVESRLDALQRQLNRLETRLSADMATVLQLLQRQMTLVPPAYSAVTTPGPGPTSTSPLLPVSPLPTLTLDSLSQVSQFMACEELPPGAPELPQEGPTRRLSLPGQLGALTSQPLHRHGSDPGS
For the compound `COc1ccc(NC(=O)/C=C/c2cc(OC)c(OC)c(OC)c2)cn1`, the “hERG current change (%, negative = inhibition) at 1uM” value was determined as 8.12%.

Turning to `CCCCCCCCC(NC(=O)c1ccc(C#N)cc1)C(=O)NCCC` (centres unmarked), the “hERG current change (%, negative = inhibition) at 1uM” value was 9.22%. Then `CC(C)(C)C(=O)C(Cc1ccccc1Cl)n1cncn1` (centres unmarked), with 9.01%; and `CC1=C(C(=O)Nc2cc(-c3cccc(F)c3)[nH]n2)C2(CCCCC2)OC1=O`, with 11.1%; and `O=C(Nc1cccc(Cl)c1)N1CCC(CO)(CCOc2ccccc2)CC1`, with 1.45%. Then `COc1ccc(N2CCN(C(=O)CCCn3nnnc3CN3CCOCC3)C(C)C2)cc1` (centres unmarked), with 4.32%.

On to `CCOc1ccc(S(=O)(=O)N2CCCCC2)cc1NC(=O)CSCc1c(C)noc1C`, for which the “hERG current change (%, negative = inhibition) at 1uM” value is listed as 0.116%. The result for `Cc1cccc(C)c1N1CCN(C(=O)N2CCOCC2)CC1` reads 11.7%. The result for `O=C(O)c1ccc2c(c1)C(=O)N(c1ccc(C(=O)OCC(=O)c3ccccc3)cc1)C2=O` reads 16.2%; that for `CC(=O)Nc1ccccc1C(=O)C(=O)Nc1ccccc1`, 10.5%; that for `CCCCN(C(=O)c1cc(OC)c(OC)c(OC)c1)C1=CC2CCC(C1)N2C.Cl` (centres unmarked), 8.68%. As to `CCN(CC(=O)NCc1ccccn1)S(=O)(=O)c1ccc(Cl)cc1`, the “hERG current change (%, negative = inhibition) at 1uM” value was 10.8%.

Turning to `CCOc1cc2[nH]c(=O)n(CCC(=O)NCc3ccc(OC)cc3)c(=O)c2cc1OCC`, the “hERG current change (%, negative = inhibition) at 1uM” value stood at 4.98%.

For the compound `COC(=O)c1ccc(N=C2SCC(=O)N2C)cc1`, the “hERG current change (%, negative = inhibition) at 1uM” value was 14.3%. The result for `Cc1ccc(-n2nnnc2-c2cnn(-c3cccc(F)c3)c2C(F)(F)F)cc1` reads 10.5%; that for `COC(=O)C1=C(C)N(Cc2ccc(C)cc2)C(=O)/C1=C\c1ccc(O)c(OC)c1`, 14.6%; that for `CCC(C)(C)NC(=O)C(c1cccc(OC)c1OC)N(Cc1ccccc1)C(=O)CCC(=O)Nc1cc(C)on1` (centres unmarked), 5.61%.

As for `Cc1cc(NC(=O)CCN2C(=O)c3ccccc3C2=O)no1`, the “hERG current change (%, negative = inhibition) at 1uM” value is 13.6%. Then `CC(C)=CCC(C)(C)C1OCCN1C(=O)c1ccccc1` (centres unmarked), with 6.09%. The result for `CC(=O)Nc1ccc(C(=O)NCCc2ccccc2)cc1` reads 19%; that for `CCOC(=O)CCCCC(=O)c1[nH]c(=O)[nH]c1C[n+]1ccccc1.[Cl-]`, 12.9%. Then `COc1cccc(N2C(=O)NC(=O)/C(=C/c3ccc([N+](=O)[O-])s3)C2=O)c1`, with 7.41%. On to `Cc1ccc(C(C)C)c(OCCCn2ccnc2C)c1.O=C(O)C(=O)O`, for which the “hERG current change (%, negative = inhibition) at 1uM” value is -9.3%. The result for `O=C(NNc1ccc([N+](=O)[O-])cc1)c1ccccc1Cl` reads 3.18%; that for `O=C(O)c1cccc([N+](=O)[O-])c1C(=O)Nc1nc2ccccc2s1`, 25.3%; that for `CC(CNS(=O)(=O)c1ccc2c(c1)NC(=O)CCS2)c1ccccc1` (centres unmarked), 14%. The result for `CCC(=O)N1CCc2cc(S(=O)(=O)NC(C(=O)N3CCc4ccccc4C3)C(C)C)ccc21` (centres unmarked) reads -4.26%.

Turning to `O=C(c1ccc(-c2ccccc2)cc1)N1CCN(c2ccccc2)CC1`, the “hERG current change (%, negative = inhibition) at 1uM” value is 14.2%. For the compound `COc1ccc(Br)cc1C(=O)NC(=S)Nc1c(C)n(C)n(-c2ccccc2)c1=O`, the “hERG current change (%, negative = inhibition) at 1uM” value came out at 18.6%. The result for `O=C(N/N=C/C=C/c1ccccc1)c1cccnc1` reads 2.91%. The result for `O=C(CCN1C(=O)c2ccccc2C1=O)C1=NN[C@@H]2C(=O)N(c3cccc(Cl)c3)C(=O)[C@H]12` reads 14.7%.

Take `O=S(=O)(c1ccc(F)cc1)N1CCN(c2ncccn2)CC1`: the “hERG current change (%, negative = inhibition) at 1uM” value was found to be 14%.

Turning to `CC(=O)N1CCCc2cc(S(=O)(=O)N3CCCC(C(=O)N4CCN(c5ccccc5)CC4)C3)ccc21` (centres unmarked), the “hERG current change (%, negative = inhibition) at 1uM” value came out at 8.52%. The result for `CCCN(CCC)CCCNc1ccc2nnc(-c3ccc(F)cc3)n2n1` reads -28.7%. Take `CC1(C)CC(=O)C2=C(C1)N=c1s/c(=C/c3ccc(F)c(F)c3)c(=O)n1C2c1ccc(F)cc1` (centres unmarked): the “hERG current change (%, negative = inhibition) at 1uM” value was 10.3%.

Take `CCn1c(Cc2ccccc2)nnc1SCC(=O)Nc1ccc2c(c1)OCCO2`: the “hERG current change (%, negative = inhibition) at 1uM” value was -2.99%.

As for `CC1CCN(C(=O)c2[nH]cnc2C(=O)N[C@@H](C)c2ccccc2)CC1`, the “hERG current change (%, negative = inhibition) at 1uM” value came out at 8.83%. The result for `O=S(=O)(Nc1ncnc2sc3c(c12)CCC3)c1ccc2ccccc2c1` reads 7.64%; that for `CC(=O)c1cc(F)c(N2CCCC2)cc1C`, 5.68%; that for `CC(=O)c1c(C)nn(C(=O)c2cccs2)c1C`, 11.8%. The result for `COCCCN=CC1=C(O)CC(c2ccccc2)CC1=O` (centres unmarked) reads 11.7%; that for `Cc1ccccc1CNC(=O)Nc1cccs1`, 4.47%; that for `O=C(/C=C/NCc1cccnc1)c1ccc(-c2ccccc2)cc1`, 13.1%. Then `Brc1ccc(CSc2ncn[nH]2)cc1`, with 11.4%.
